Patent US7423058B2, “Inhibitors of hepatitis C virus NS3 protease” (Schering Corporation, priority 2004, dated 2008)

target: Recombinant heterodimeric HCV NS3/NS4A protease (strain 1a) (Hepatitis C virus genotype 1a, UniProt P27958); experiment: Spectrophotometric assay for HCV protease inhibitory activity (chromogenic ester substrates); format: biochemical; details: Table 1: Ketones; read-out: Ki* Range
From the text: The present invention relates to novel HCV protease inhibitors. This utility can be manifested in their ability to inhibit the HCV NS2/NS4a serine protease.
Assay for HCV Protease Inhibitory Activity:
Spectrophotometric Assay: Spectrophotometric assay for the HCV serine protease can be performed on the inventive compounds by following the procedure described by R. Zhang et al, Analytical Biochemistry, 270 (1999) 268-275, the disclosure of which is incorporated herein by reference. The assay based on the proteolysis of chromogenic ester substrates is suitable for the continuous monitoring of HCV NS3 protease activity. The substrates are derived from the P side of the NS5A-NS5B junction sequence (Ac-DTEDVVX(Nva), where X=A or P) whose C-terminal carboxyl groups are esterified with one of four different chromophoric alcohols (3- or 4-nitrophenol, 7-hydroxy-4-methyl-coumarin, or 4-phenylazophenol). Illustrated below are the synthesis, characterization and application of these novel spectrophotometric ester substrates to high throughput screening and detailed kinetic evaluation of HCV NS3 protease inhibitors. Materials and Methods:
Materials: Chemical reagents for assay related buffers are obtained from Sigma Chemical Company (St. Louis, Mo.). Reagents for peptide synthesis were from Aldrich Chemicals, Novabiochem (San Diego, Calif.), Applied Biosystems (Foster City, Calif.) and Perseptive Biosystems (Framingham, Mass.). Peptides are synthesized manually or on an automated ABI model 431A synthesizer (from Applied Biosystems). UVNIS Spectrometer model LAMBDA 12 was from Perkin Elmer (Norwalk, Conn.) and 96-well UV plates were obtained from Corning (Corning, N.Y.). The prewarming block can be from USA Scientific (Ocala, Fla.) and the 96-well plate vortexer is from Labline Instruments (Melrose Park, Ill.). A Spectramax Plus microtiter plate reader with monochrometer is obtained from Molecular Devices (Sunnyvale, Calif.).
Protein concentrations are determined by the Biorad dye method using recombinant HCV protease standards previously quantified by amino acid analysis. Prior to assay initiation, the enzyme storage buffer (50 mM sodium phosphate pH 8.0, 300 mM NaCl, 10% glycerol, 0.05% lauryl maltoside and 10 mM DTT) is exchanged for the assay buffer (25 mM MOPS pH 6.5, 300 mM NaCl, 10% glycerol, 0.05% lauryl maltoside, 5 μM EDTA and 5 μM DTT) utilizing a Biorad Bio-Spin P-6 prepacked column. Substrate Synthesis and Purification: The synthesis of the substrates is done as reported by R. Zhang et al, (ibid.) and is initiated by anchoring Fmoc-Nva-OH to 2-chlorotrityl chloride resin using a standard protocol (K. Barlos et al, Int. J. Pept. Protein Res., 37 (1991), 513-520). The peptides are subsequently assembled, using Fmoc chemistry, either manually or on an automatic ABI model 431 peptide synthesizer. […] The combined filtrate and DCM wash is evaporated azeotropically (or repeatedly extracted by aqueous Na2CO3 solution) to remove the acid used in cleavage. The DCM phase is dried over Na2SO4 and evaporated.
The ester substrates are assembled using standard acid-alcohol coupling procedures (K. Holmber et al, Acta Chem. Scand., B33 (1979) 410-412). Peptide fragments are dissolved in anhydrous pyridine (30-60 mg/ml) to which 10 molar equivalents of chromophore and a catalytic amount (0.1 eq.) of para-toluenesulfonic acid (pTSA) were added. Dicyclohexylcarbodiimide (DCC, 3 eq.) is added to initiate the coupling reactions. Product formation is monitored by HPLC and can be found to be complete following 12-72 hour reaction at room temperature. Pyridine solvent is evaporated under vacuum and further removed by azeotropic evaporation with toluene.

Row | SMILES | Ki [µM]
1 | CC(C)C(=O)[C@@H](NC(=O)N[C@H](C(=O)N1C[C@H]2[C@@H]([C@H]1C(=O)NC(CC1CC1)C(=O)C(N)=O)C2(C)C)C(C)(C)C)C1CCCCC1 (stereo partly shown) [compound 4047] | < 0.075
2 | CC(C)(C)[C@H](NC(=O)N[C@H](C(=O)C1CC1)C1CCC1)C(=O)N1C[C@H]2[C@@H]([C@H]1C(=O)NC(CC1CC1)C(=O)C(N)=O)C2(C)C (stereo partly shown) [compound 4048] | < 0.075
3 | CC(C)(C)[C@H](NC(=O)N[C@H](C(=O)c1ccccc1)C1CCCCC1)C(=O)N1C[C@H]2[C@@H]([C@H]1C(=O)NC(CC1CCC1)C(=O)C(N)=O)C2(C)C (stereo partly shown) [compound 4051] | < 0.075
4 | CC(C)[C@@H](CC(=O)c1ccccc1)NC(=O)N[C@H](C(=O)N1C[C@H]2[C@@H]([C@H]1C(=O)NC(CC1CC1)C(=O)C(N)=O)C2(C)C)C(C)(C)C (stereo partly shown) [compound 4052] | < 0.075
5 | C#CCCC(NC(=O)[C@@H]1[C@@H]2[C@H](CN1C(=O)[C@@H](NC(=O)N[C@H](C(=O)C1(C)CC1)C1CCCCC1)C1CCCCC1)C2(C)C)C(=O)C(=O)NCC=C (stereo partly shown) [compound 4053] | < 0.075
6 | CC(C)C(=O)[C@@H](NC(=O)N[C@H](C(=O)N1C[C@H]2[C@@H]([C@H]1C(=O)NC(CC1CC1)C(=O)C(N)=O)C2(C)C)C(C)(C)C)C(C)C (stereo partly shown) [compound 4054] | < 0.075
7 | CC(C)(C)[C@H](NC(=O)N[C@H](C(=O)c1ccccc1)C1CCCC1)C(=O)N1C[C@H]2[C@@H]([C@H]1C(=O)NC(CC1CC1)C(=O)C(N)=O)C2(C)C (stereo partly shown) [compound 4055] | < 0.075
8 | CC(C)(C)[C@H](NC(=O)N[C@H](C(=O)N1C[C@H]2[C@@H]([C@H]1C(=O)NC(CC1CC1)C(=O)C(N)=O)C2(C)C)C(C)(C)C)C(=O)C1CC1 (stereo partly shown) [compound 4057] | < 0.075
9 | CC(C)C(=O)[C@@H](NC(=O)N[C@H](C(=O)N1C[C@H]2[C@@H]([C@H]1C(=O)NC(CC1CC1)C(=O)C(N)=O)C2(C)C)C(C)(C)C)C1CCC1 (stereo partly shown) [compound 4058] | < 0.075
10 | CC(C)[C@H](NC(=O)N[C@H](C(=O)N1C[C@H]2[C@@H]([C@H]1C(=O)NC(CC1CC1)C(=O)C(N)=O)C2(C)C)C(C)(C)C)C(=O)c1ccc[nH]1 (stereo partly shown) [compound 4059] | < 0.075
11 | CC(C)(C)[C@H](NC(=O)N[C@H](C(=O)C1CC1)C1CCCC1)C(=O)N1C[C@H]2[C@@H]([C@H]1C(=O)NC(CC1CC1)C(=O)C(N)=O)C2(C)C (stereo partly shown) [compound 4060] | < 0.075
12 | CC(C)(C)C(=O)CC1(NC(=O)N[C@H](C(=O)N2C[C@H]3[C@@H]([C@H]2C(=O)NC(CC2CCC2)C(=O)C(N)=O)C3(C)C)C(C)(C)C)CCCCC1 (stereo partly shown) [compound 4061] | < 0.075
13 | C#CCCC(NC(=O)[C@@H]1[C@@H]2[C@H](CN1C(=O)[C@@H](NC(=O)N[C@H](C(=O)c1ccccc1)C(C)C)C(C)(C)C)C2(C)C)C(=O)C(=O)NCC=C (stereo partly shown) [compound 4062] | < 0.075
14 | CC(C)[C@H](NC(=O)N[C@H](C(=O)N1C[C@H]2[C@@H]([C@H]1C(=O)NC(CC1CC1)C(=O)C(N)=O)C2(C)C)C(C)(C)C)C(=O)C1CCCCC1 (stereo partly shown) [compound 4063] | < 0.075
15 | CC(C)[C@H](NC(=O)N[C@H](C(=O)N1C[C@H]2[C@@H]([C@H]1C(=O)NC(CC1CC1)C(=O)C(N)=O)C2(C)C)C(C)(C)C)C(=O)c1ccc(F)cc1 (stereo partly shown) [compound 4064] | < 0.075
16 | CC(C)(C)[C@H](NC(=O)N[C@H](C(=O)c1ccccn1)C1CCCCC1)C(=O)N1C[C@H]2[C@@H]([C@H]1C(=O)NC(CC1CC1)C(=O)C(N)=O)C2(C)C (stereo partly shown) [compound 4065] | < 0.075
17 | CC1([C@H](NC(=O)N[C@H](C(=O)C2CC2)C2CCCCC2)C(=O)N2C[C@H]3[C@@H]([C@H]2C(=O)NC(CC2CC2)C(=O)C(N)=O)C3(C)C)CCCCC1 (stereo partly shown) [compound 4066] | < 0.075
18 | C#CCCC(NC(=O)[C@@H]1[C@@H]2[C@H](CN1C(=O)[C@@H](NC(=O)NC1(CC(=O)C(C)(C)C)CCCCC1)C(C)(C)C)C2(C)C)C(=O)C(=O)NCC=C (stereo partly shown) [compound 4067] | < 0.075
19 | CC(C)[C@H](NC(=O)N[C@H](C(=O)N1C[C@H]2[C@@H]([C@H]1C(=O)NC(CC1CC1)C(=O)C(N)=O)C2(C)C)C(C)(C)C)C(=O)CCc1ccccc1 (stereo partly shown) [compound 4068] | < 0.075

Row | SMILES | Ki [µM]
20 | CC(C)[C@H](NC(=O)N[C@H](C(=O)N1C[C@H]2[C@@H]([C@H]1C(=O)NC(CC1CC1)C(=O)C(N)=O)C2(C)C)C(C)(C)C)C(=O)c1ccco1 (stereo partly shown) [compound 4069] | < 0.075
21 | CC(=O)[C@@H](NC(=O)N[C@H](C(=O)N1C[C@H]2[C@@H]([C@H]1C(=O)NC(CC1CC1)C(=O)C(N)=O)C2(C)C)C(C)(C)C)C(C)C (stereo partly shown) [compound 4070] | < 0.075
22 | CSc1ccc(C(=O)[C@@H](NC(=O)N[C@H](C(=O)N2C[C@H]3[C@@H]([C@H]2C(=O)NC(CC2CC2)C(=O)C(N)=O)C3(C)C)C(C)(C)C)C(C)C)cc1 (stereo partly shown) [compound 4071] | < 0.075
23 | COc1cccc(C(=O)[C@@H](NC(=O)N[C@H](C(=O)N2C[C@H]3[C@@H]([C@H]2C(=O)NC(CC2CC2)C(=O)C(N)=O)C3(C)C)C(C)(C)C)C(C)C)n1 (stereo partly shown) [compound 4072] | < 0.075
24 | CC(C)(C)[C@H](NC(=O)N[C@H](C(=O)c1nccs1)C1CCCCC1)C(=O)N1C[C@H]2[C@@H]([C@H]1C(=O)NC(CC1CC1)C(=O)C(N)=O)C2(C)C (stereo partly shown) [compound 4073] | < 0.075
25 | CC(C)[C@H](NC(=O)N[C@H](C(=O)N1C[C@H]2[C@@H]([C@H]1C(=O)NC(CC1CCC1)C(=O)C(N)=O)C2(C)C)C(C)(C)C)C(=O)C1CC1 (stereo partly shown) [compound 4074] | < 0.075
26 | CC(C)[C@H](NC(=O)N[C@H](C(=O)N1C[C@H]2[C@@H]([C@H]1C(=O)NC(CC1CC1)C(=O)C(N)=O)C2(C)C)C(C)(C)C)C(=O)c1ccc(Cl)cc1 (stereo partly shown) [compound 4075] | < 0.075
27 | CCC(CC)[C@H](NC(=O)N[C@H](C(=O)N1C[C@H]2[C@@H]([C@H]1C(=O)NC(CC1CC1)C(=O)C(N)=O)C2(C)C)C(C)(C)C)C(=O)c1ccccc1 (stereo partly shown) [compound 4076] | < 0.075
28 | CC(C)[C@H](NC(=O)N[C@H](C(=O)N1C[C@H]2[C@@H]([C@H]1C(=O)NC(CC1CCC1)C(=O)C(N)=O)C2(C)C)C(C)(C)C)C(=O)c1nccs1 (stereo partly shown) [compound 4077] | < 0.075
29 | CC(C)[C@H](NC(=O)N[C@H](C(=O)N1C[C@H]2[C@@H]([C@H]1C(=O)NC(CC1CC1)C(=O)C(N)=O)C2(C)C)C(C)(C)C)C(=O)c1cccnc1 (stereo partly shown) [compound 4078] | < 0.075
30 | CC(C)[C@@H](CC(=O)Cc1ccccc1)NC(=O)N[C@H](C(=O)N1C[C@H]2[C@@H]([C@H]1C(=O)NC(CC1CC1)C(=O)C(N)=O)C2(C)C)C(C)(C)C (stereo partly shown) [compound 4079] | < 0.075
31 | C=CCNC(=O)C(=O)C(CCC)NC(=O)[C@@H]1[C@@H]2[C@H](CN1C(=O)[C@@H](NC(=O)NC1(CC(=O)C(C)(C)C)CCCCC1)C(C)(C)C)C2(C)C (stereo partly shown) [compound 4080] | < 0.075
32 | CC(=O)[C@@H](NC(=O)N[C@H](C(=O)N1C[C@H]2[C@@H]([C@H]1C(=O)NC(CC1CC1)C(=O)C(N)=O)C2(C)C)C(C)(C)C)C1CCCCC1 (stereo partly shown) [compound 4081] | < 0.075
33 | CC(C)[C@H](NC(=O)N[C@H](C(=O)N1C[C@H]2[C@@H]([C@H]1C(=O)NC(CC1CCC1)C(=O)C(N)=O)C2(C)C)C(C)(C)C)C(=O)c1ccccc1 (stereo partly shown) [compound 4082] | < 0.075
34 | C=CCNC(=O)C(=O)C(CCC)NC(=O)[C@@H]1[C@@H]2[C@H](CN1C(=O)[C@@H](NC(=O)N[C@H](C(=O)c1ccccc1OC)C(C)C)C(C)(C)C)C2(C)C (stereo partly shown) [compound 4083] | < 0.075
35 | CC(C)[C@H](NC(=O)N[C@H](C(=O)N1C[C@H]2[C@@H]([C@H]1C(=O)NC(CC1CC1)C(=O)C(N)=O)C2(C)C)C1Cc2ccccc2C1)C(=O)C1CC1 (stereo partly shown) [compound 4084] | < 0.075
36 | CC(C)[C@@H](CC(=O)c1cccs1)NC(=O)N[C@H](C(=O)N1C[C@H]2[C@@H]([C@H]1C(=O)NC(CC1CC1)C(=O)C(N)=O)C2(C)C)C(C)(C)C (stereo partly shown) [compound 4085] | < 0.075
37 | C=CCNC(=O)C(=O)C(CCC(F)(F)F)NC(=O)[C@@H]1[C@@H]2[C@H](CN1C(=O)[C@@H](NC(=O)N[C@H](C(=O)C1CC1)C(C)C)C1CCCCC1)C2(C)C (stereo partly shown) [compound 4086] | < 0.075
